Among the data in the supplement of paper PMC4604168 (melanoma cell lines) are cell count values, retold here.

Some test systems named below: WM115; WM1716; WM1745; WM3526; WM3619; WM451Lu.
Holding throughout (assay): cell count relative to DMSO control; melanoma cells; higher = more viable cells
Holding throughout (conditions): library dose: low library concentration; 72 h

Molecules are shown by their SMILES. The list shows a part of the results. Most values come without repeats; read them as rough.
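Note: cell number obtained by counting DAPI-stained nuclei in high-throughput microscope images with image analysis software, screen run in 1,536-well plates.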

For the compound `CC(C)C[C@H](NC(=O)[C@H](Cc1ccccc1)NC(=O)c1cnccn1)B(O)O` [Bortezomib] + C[C@@H]1CCN(C(=O)CC#N)C[C@@H]1N(C)c1ncnc2[nH]ccc12 [CP690550] (first compound 0.001 µM, partner dose 1 µM), the cell count was determined as 114% in the experiment on WM115; 28.9% in the experiment on WM1716; 75.7% in the experiment with WM1745; 99.7% with WM3526; 24.4% in the experiment with WM3619; 80.6% with WM451Lu.

For `Cn1c(=O)n(-c2ccc(C(C)(C)C#N)cc2)c2c3cc(-c4cnc5ccccc5c4)ccc3ncc21` + COCC[n+]1c2c(n(Cc3cnccn3)c1C)C(=O)c1ccccc1C2=O [YM155] (first compound 0.004 µM, partner dose 0.0004 µM), the cell count with WM115 came to 93%; with WM1716 it was 83.7%; in the experiment with WM1745 it was 110%; in the experiment on WM3526, 86.9%; in the experiment with WM3619, 87.2%; with WM451Lu, 73.7%.

On to `Cn1c(=O)n(-c2ccc(C(C)(C)C#N)cc2)c2c3cc(-c4cnc5ccccc5c4)ccc3ncc21` + CN(NC(=O)CC(=O)NN(C)C(=S)c1ccccc1)C(=S)c1ccccc1 [STA4783] (first compound 0.004 µM, partner dose 0.006 µM), for which the cell count is 72.8% with WM115; 72.9% in the experiment on WM1716; 57.9% with WM1745; 95.7% in the experiment on WM3526; 64.9% in the experiment with WM3619; 92.8% in the experiment on WM451Lu.

With `Cn1c(=O)n(-c2ccc(C(C)(C)C#N)cc2)c2c3cc(-c4cnc5ccccc5c4)ccc3ncc21` + NCC(=O)Nc1ccc(-n2nc(C(F)(F)F)cc2-c2ccc3c(ccc4ccccc43)c2)cc1 [OSU03012] (first compound 0.004 µM, partner dose 1 µM), the cell count in the experiment on WM115 was 88.9%; in the experiment with WM1716, 74.1%; with WM1745 it was 89.6%; in the experiment on WM3526, 56.2%; with WM3619 it was 106%; in the experiment with WM451Lu, 64.9%.

In the case of `COc1ccc(C2=N[C@@H](c3ccc(Cl)cc3)[C@@H](c3ccc(Cl)cc3)N2C(=O)N2CCNC(=O)C2)c(OC(C)C)c1` [Nutlin-3] + O=C(Nc1ccccc1)c1cc([N+](=O)[O-])ccc1Cl [GW9662] (first compound 0.1 µM, partner dose 2 µM), the cell count in the experiment on WM115 turned out to be 95.8%; with WM1716, 76.1%; with WM1745, 87.1%; in the experiment on WM3526, 96.7%; with WM3619 it was 74.5%; with WM451Lu, 105%.

As for `Cc1cn(-c2cc(NC(=O)c3ccc(C)c(Nc4nccc(-c5cccnc5)n4)c3)cc(C(F)(F)F)c2)cn1` [nilotinib] + C=CCNC1=C2C[C@@H](C)C[C@H](OC)[C@H](O)[C@@H](C)/C=C(\C)[C@H](OC(N)=O)[C@@H](OC)/C=C\C=C(/C)C(=O)NC(=CC1=O)C2=O [Tanespimycin] (first compound 0.2 µM, partner dose 0.002 µM), the cell count in the experiment on WM115 was 97.9%; in the experiment with WM1716, 97.4%; in the experiment on WM1745, 86.2%; with WM3526, 117%; in the experiment on WM3619, 91.3%; with WM451Lu, 123%.

`Cc1cc(Nc2cc(N3CCN(C)CC3)nc(/C=C/c3ccccc3)n2)n[nH]1` + C[C@@H](Oc1cc(-c2cnn(C3CCNCC3)c2)cnc1N)c1c(Cl)ccc(F)c1Cl [Crizotinib] (first compound 0.04 µM, partner dose 0.2 µM): the cell count stood at 96.1% in the experiment with WM115; 104% in the experiment on WM1716; 72.9% in the experiment on WM1745; 82.2% with WM3526; 125% in the experiment on WM3619; 99.9% in the experiment with WM451Lu.

With `CC(C)C[C@H](NC(=O)[C@H](Cc1ccccc1)NC(=O)c1cnccn1)B(O)O` [Bortezomib] + O=c1cc(-c2cccc3c2Sc2ccccc2S3)oc(N2CCOCC2)c1 [KU55933] (first compound 0.001 µM, partner dose 1 µM), the cell count in the experiment on WM115 came out at 107%; in the experiment with WM1716 it was 26.8%; in the experiment with WM1745, 47%; in the experiment on WM3526, 67.3%; in the experiment with WM3619, 22.9%; in the experiment on WM451Lu, 77%.

Take `Cc1cn(-c2cc(NC(=O)c3ccc(C)c(Nc4nccc(-c5cccnc5)n4)c3)cc(C(F)(F)F)c2)cn1` [nilotinib] + Cc1nc(Nc2ncc(C(=O)Nc3c(C)cccc3Cl)s2)cc(N2CCN(CCO)CC2)n1 [dasatanib] (first compound 0.2 µM, partner dose 0.004 µM): the cell count in the experiment with WM115 worked out at 85.1%; with WM1716 it was 98.6%; with WM1745, 75.8%; with WM3526, 97%; in the experiment on WM3619 it was 99.9%; in the experiment with WM451Lu, 96.4%.

With `Cn1c(=O)n(-c2ccc(C(C)(C)C#N)cc2)c2c3cc(-c4cnc5ccccc5c4)ccc3ncc21` + COc1cc(N2CCC(N3CCN(C)CC3)CC2)ccc1Nc1ncc(Cl)c(Nc2ccccc2S(=O)(=O)C(C)C)n1 [NVP-TAE684] (first compound 0.004 µM, partner dose 0.08 µM), the cell count in the experiment on WM115 is 74.5%; in the experiment on WM1716, 82.3%; in the experiment with WM1745, 87.8%; in the experiment on WM3526, 97.2%; in the experiment on WM3619, 103%; with WM451Lu, 86.6%.

`Cc1cc(Nc2cc(N3CCN(C)CC3)nc(/C=C/c3ccccc3)n2)n[nH]1` + COc1ccc(-c2ccc3c(N4CCOCC4)nc(N4C[C@@H](C)O[C@@H](C)C4)nc3n2)cc1CO [KU0063794] (first compound 0.04 µM, partner dose 0.02 µM): the cell count worked out at 88.7% in the experiment on WM115; 88.4% with WM1716; 87.6% with WM1745; 92.7% in the experiment on WM3526; 82.6% with WM3619; 106% in the experiment with WM451Lu.
